# In all, about 310,000 compounds went through this assay and about 14,000 (4.5%) showed an effect of 50% or more. The effect is printed as a negative number. The list shows a part of the results.
# Biological target: human ether-à-go-go-related gene (hERG) potassium channel (human, UniProt Q12809)
# Assay: primary screen, population patch clamp on CHO cells stably expressing hERG
# 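Note: peak tail current of the secondary pulse compared with the same well before compound.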
# Chain of human ether-à-go-go-related gene (hERG) potassium channel (Q12809 whole entry, looked up): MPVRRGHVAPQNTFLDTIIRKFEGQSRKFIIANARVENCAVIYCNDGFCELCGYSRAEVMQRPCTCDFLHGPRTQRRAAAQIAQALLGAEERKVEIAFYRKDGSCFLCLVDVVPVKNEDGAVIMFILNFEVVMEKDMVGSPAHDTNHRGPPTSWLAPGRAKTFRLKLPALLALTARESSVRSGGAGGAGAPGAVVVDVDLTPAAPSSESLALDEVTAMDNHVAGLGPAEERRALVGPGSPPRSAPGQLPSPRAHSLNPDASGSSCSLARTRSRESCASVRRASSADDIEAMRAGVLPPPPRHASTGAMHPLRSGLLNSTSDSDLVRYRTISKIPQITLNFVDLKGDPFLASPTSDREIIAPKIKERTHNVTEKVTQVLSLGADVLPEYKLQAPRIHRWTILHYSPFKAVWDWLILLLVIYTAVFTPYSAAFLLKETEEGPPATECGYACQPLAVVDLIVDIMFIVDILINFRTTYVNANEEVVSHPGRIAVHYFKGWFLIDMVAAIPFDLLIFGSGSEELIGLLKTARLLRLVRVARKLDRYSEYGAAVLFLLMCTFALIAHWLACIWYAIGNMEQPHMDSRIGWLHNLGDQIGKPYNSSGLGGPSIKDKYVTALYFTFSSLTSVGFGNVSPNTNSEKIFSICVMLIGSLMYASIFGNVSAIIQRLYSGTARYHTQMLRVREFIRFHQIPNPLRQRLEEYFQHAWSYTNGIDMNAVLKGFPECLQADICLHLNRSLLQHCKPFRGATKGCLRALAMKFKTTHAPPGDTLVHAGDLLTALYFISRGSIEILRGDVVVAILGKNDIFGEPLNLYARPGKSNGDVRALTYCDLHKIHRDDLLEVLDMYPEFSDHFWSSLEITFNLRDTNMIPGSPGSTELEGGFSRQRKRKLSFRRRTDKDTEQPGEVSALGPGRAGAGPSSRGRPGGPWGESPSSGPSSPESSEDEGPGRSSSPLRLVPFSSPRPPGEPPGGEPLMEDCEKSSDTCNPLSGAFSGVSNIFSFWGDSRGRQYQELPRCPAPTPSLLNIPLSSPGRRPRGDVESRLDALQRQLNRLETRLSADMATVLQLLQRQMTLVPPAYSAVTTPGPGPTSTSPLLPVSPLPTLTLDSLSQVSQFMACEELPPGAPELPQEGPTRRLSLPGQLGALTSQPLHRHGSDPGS
row,Structure (SMILES),"hERG current change (%, negative = inhibition) at 10uM"
1,COCCN(Cc1cc2cc3c(cc2nc1Cl)OCO3)C(=O)c1cccc(C)c1,-64.3%
2,Cc1nnc(SCC(=O)NCc2ccc3c(c2)OCO3)n1C,25.1%
3,Cc1ccc(NC(=O)c2cc(-c3cc(Cl)ccc3O)n[nH]2)cc1C,26.3%
4,CCOC(=O)c1nn(-c2ccc([N+](=O)[O-])cc2)cc1O,2.65%
5,O=C(Nc1ccccc1F)C1CCN(S(=O)(=O)c2cccc3nonc23)CC1,7.98%
6,c1ccc2c(c1)-c1cccc3c1c-2cc1ccccc13,13.9%
7,Cn1nnnc1SCC(=O)NCc1ccc2c(c1)OCO2,31.4%
8,CCOc1ccc(N(C)C(=O)CCc2nnc3ccc(N4CCCCC4)nn23)cc1,3.74%
9,CCn1c(=O)c(C(=O)Nc2ccc(C)cc2)c(O)c2ccccc21,18.1%
10,FC(F)(F)C1=CC(c2ccc(Br)cc2)=NCCN1,-25.2%
11,CCCN(CC(=O)Nc1ccccc1OC)C(=O)CC1CCCC1,-3.09%
12,COc1ccc(N2CCN(C(CNC(=O)Oc3ccccc3)c3cccnc3)CC2)cc1 (centres unmarked),-27.5%
13,COC(=O)c1ccccc1NC(=O)COC(=O)[C@H](C)NC(N)=O,19.3%
14,COC(=O)NC(=S)Nc1ccc(Oc2ccc(Cl)cc2)c(Cl)c1,16.9%
15,CC(C)c1ccc(NC(=O)c2ccc3c(c2)C(=O)N(Cc2cccnc2)C3=O)cc1,-7.94%
16,Cn1c2ccccc2n2c(=O)cc(-c3ccccc3)c(C#N)c12,-4.72%
17,Cc1ccccc1-c1nnc(CS(=O)(=O)c2ccccc2)o1,-19.2%
18,CCOC(=O)Cn1ncc2c3ccccc3n(CC(=O)OCC)c2c1=O,13.2%
19,C=CCNc1nnc(SCC(=O)N2CCCCC2)c2ccccc12,-21.1%
20,Cc1ccccc1NC1=CC(=O)CC(C)(C)C1,-0.789%
21,Cc1cc(C)c2[nH]c(O)c(N=Nc3ccc(C(=O)O)cc3)c2c1,22.7%
22,Cc1c(NC(=O)CSc2nnnn2-c2ccc(C(=O)O)cc2)c(=O)n(-c2ccccc2)n1C,20.8%
23,COC(=O)C(C)Oc1cc(OC(C)C(=O)OC)c2c(-c3ccccc3)cc(=O)oc2c1 (centres unmarked),-22.1%

row,Structure (SMILES),"hERG current change (%, negative = inhibition) at 10uM"
1,COc1ccc([N+](=O)[O-])cc1N(CC(=O)N1CCCCC1)S(C)(=O)=O,10.5%
2,O=C(Nc1ccc2c(c1)OCCO2)C1CCN(C(=O)c2ccc(F)cc2)CC1,3.73%
3,CCn1ccnc1[C@@H]1C[C@H]2CN(c3ccccc3OC)C(=O)[C@]23CCCN13,19.8%
4,C/C(=N\NC(=O)c1nnn(-c2nonc2N)c1C(C)C)c1ccc2ccccc2c1,5.86%
5,CCCCCCCC(=O)NNC(=O)Cc1ccccc1,0.497%
6,COc1ccc(/C=C/C(=O)c2c(C)nc3ccccn23)cc1,3.6%
7,Cc1cc(=O)n2c(sc3ccccc32)c1C#N,12.9%
8,CCCCn1ccc(O)c(Cc2ccc(F)cc2)c1=O,10.7%
9,CC(NC(=O)c1ccc(Cl)cc1)C(=O)N1CCCCC1 (centres unmarked),15.4%
10,COc1cccc(CNC(=O)c2c[nH]n3c(=O)c(Cl)c(C)nc23)c1,-2.28%
11,O=C(NCC1CCCO1)C(c1ccccn1)N(Cc1ccccc1Cl)C(=O)CN1C(=O)c2ccccc2S1(=O)=O (centres unmarked),2.83%
12,Cc1cc(NC(=O)Cc2ccccc2)c2ccccc2n1,14.2%
13,O=S(=O)(c1ccc(F)cc1)c1snnc1-c1ccccc1,2.36%
14,O=S(=O)(NCC1OCCc2ccccc21)c1ccccc1 (centres unmarked),7.12%
15,CCOC(=O)c1c(C)[nH]c(C(=O)COC(=O)c2ccccn2)c1C,-17%
16,Cc1ccsc1C(=O)Nc1ccccc1N1CCCC1,-13.6%
17,COC(=O)[C@H](CCSC)NC(=O)Nc1cc(OC)cc(OC)c1,14.5%
18,COCc1c(C(=O)N2CCN(Cc3nc4ccccc4s3)CC2)oc2ccccc12,-72.5%
19,O=C(/C=C\c1ccc(-c2ccccc2)o1)c1ccccc1,3.16%
20,Cc1cc2c(cc3c(=O)n(CC(=O)NCCCN4CC(C)CC(C)C4)ncn32)s1 (centres unmarked),-53.4%
21,O=C1NN(c2ccccc2)C(=O)/C1=C\c1coc2ccc(O)cc2c1=O,-16.7%
22,COc1ccc(CCn2c(C(C)C)nc3c(c(=O)c4ccccc4n3C)c2=O)cc1,-30%
23,CCN(CC(=O)Nc1ccc(OC)cc1)C(=O)CSCC(=O)Nc1ccc(C)cc1,-23.5%

row,Structure (SMILES),"hERG current change (%, negative = inhibition) at 10uM"
1,CCN(c1ccccc1)S(=O)(=O)c1ccc(C(=O)NNC(=O)c2ccccc2F)cc1,-7.99%
2,CC(C)CC(=O)Nc1ccc(S(=O)(=O)Nc2nccs2)cc1,-6.26%
3,CCOC(=O)c1ccc(NC(=O)CS(=O)(=O)c2cn(CC)c3ccccc23)cc1,-2.2%
4,Cc1ccc(S(=O)(=O)NNC(=O)c2sc(=S)n(C)c2C)cc1,4.98%
5,O=C(CSc1nnc(-c2ccccc2)c(-c2ccccc2)n1)NC1CCS(=O)(=O)C1 (centres unmarked),17.3%
6,CC1(C)OCC(C2CC(c3ccccc3)NS(=O)(=O)O2)O1 (centres unmarked),25.9%
7,COc1ccc(-c2c(C#N)c(N)nc3c2CCCC3)cc1OC,12.5%
8,CCc1ccc(NC(=S)N(CCCN2CCOCC2)Cc2ccco2)cc1,-12.6%
9,COc1ccc2oc3ccc(OC)cc3c(=O)c2c1,-6.52%
10,COCCn1c(SCC(=O)NC2CCCCC2)nnc1-c1ccncc1,5.92%
11,O=C(CSc1ncn(-c2ccccc2)n1)NCc1ccccc1,-20.3%
12,Cc1ccc2nc(C)cc(C(=O)N3CCCC(CO)(Cc4ccccc4C)C3)c2c1 (centres unmarked),-4.66%
13,COc1cc(CNC2CCCCCC2)cc(OC)c1,-9.7%
14,CCCCCn1c(CCNC(=O)CCC)nc2ccccc21,-57.2%
15,Cc1ccc(S(=O)(=O)NC2CCCC2)cc1C,-9.68%
16,S=C(NCc1ccc2c(c1)OCO2)Nc1ccc2nsnc2c1,18.1%
17,Cc1ccccc1NC(=O)Cc1nnc(SCc2ccc(Cl)c(Cl)c2)n1C,0.81%
18,O=C(C1CC(=O)N(C2CCCCC2)C1)N1CCN(c2ccccc2)CC1 (centres unmarked),-10.9%
19,COCC(=O)N(Cc1cc2cccc(C)c2[nH]c1=O)c1ccccc1,8.99%
20,CNc1c([N+](=O)[O-])cnn1-c1cccc(Cl)n1,14.4%
21,NC(=O)CSc1nnnn1-c1ccccc1Cl,6.07%
22,O=C(CSc1nnc(-c2cccnc2)o1)Nc1nccs1,8.81%
23,Cc1ccccc1-c1nc2cc(NC(=O)C3CC3)ccc2o1,7.97%

row,Structure (SMILES),"hERG current change (%, negative = inhibition) at 10uM"
1,Cc1csc(SCC(=O)Nc2cccc3nsnc23)n1,-14.8%
2,COc1cc(/C=C/C(=O)NCc2cccnc2)cc(OC)c1OC,0.841%
3,CCCC1=NCCn2cccc21.O=C(O)/C=C/C(=O)O,6.81%
4,O=C(NCc1ccco1)C1CCN(S(=O)(=O)N2CCC3(CC2)OCCO3)CC1,-2.55%
5,COc1ccc(C(=O)Nc2nnc(S(=O)(=O)Cc3ccc(F)cc3)s2)cc1,12.1%
6,CCOC(=O)Cc1nnc(NC(=O)Nc2ccccc2)s1,2.47%
7,C=CCN1CC(O)=C(c2ccccc2)C1=N,7.37%
8,C(=N\N1CCN(Cc2ccccc2)CC1)/c1ccccc1,-1.37%
9,Cc1ccccc1C(=O)N=c1c(C#N)cc2c(=O)n3cccc(C)c3nc2n1Cc1ccco1,-46.2%
10,CCc1nn(CC(=O)N2CCC3(CC2)OCCO3)c(=O)c2cccn12,16.7%
11,Cc1ccc(S(=O)(=O)Nn2cnnc2)cc1,25.2%
12,Cc1ccc(NC(=S)NCCC2=CCCCC2)cc1,-13.7%
13,COc1ccc(Cl)cc1NC(=O)CSc1nc2sccc2c(=O)[nH]1,25.2%
14,O=C(CCc1ccccc1)N1CCCN(C(=O)CCc2ccccc2)CC1,-51.5%
15,CN1C(=O)NC2(O)C(=O)c3ccccc3C12O (centres unmarked),4.48%
16,CCN(CC)CCNC(C(=O)Nc1cc(C(F)(F)F)ccc1Cl)c1ccccc1 (centres unmarked),-76.4%
17,O/N=C(\c1ccc(Cl)cc1)c1cc2ccccc2o1,9.58%
18,O=C(NC(NC(=O)c1ccccc1)C(=O)c1ccccc1)c1ccccc1,13.3%
19,COc1cc(C2Nc3ccc4ncccc4c3C3=C2C(=O)CCC3)cc(OC)c1O (centres unmarked),12.9%
20,CCCCSc1nnc(-c2cc(Br)ccc2N)c(=O)[nH]1,-10.9%
21,COc1cc2nc(CN(C)Cc3ccc(F)cc3)[nH]c(=O)c2cc1OC,-13.5%
22,CCOC(=O)C1(Cc2cccc(F)c2)CCN(Cc2cnn(CC)c2)CC1,-32.2%
23,COc1ccc(/C=N/NC(=O)Cc2n[nH]c(=O)[nH]c2=O)cc1,31.4%
